# In PubChem BioAssay AID488969 (Vanderbilt High Throughput Screening Facility, 2010):
# In all, about 110,000 compounds were measured (“z-score”: median about -0.1, highest 2% from about 2 on). Some of the results follow.
# Molecular target: Metabotropic glutamate receptor 8 (Rattus norvegicus) (UniProt P70579)
# Assay: rat mGluR8 modulators via GIRK flux, primary screen, cell-based, thallium flux, HTS (AID 488969)
# Conditions: HEK293 rat mGluR8, GIRK (G protein-gated inwardly rectifying potassium channel) thallium flux, FluoZin2; at 10 µM; stronger effect = higher value; submaximal glutamate (EC20) added with thallium
# Sequence of UniProt P70579 (P70579 whole entry, looked up): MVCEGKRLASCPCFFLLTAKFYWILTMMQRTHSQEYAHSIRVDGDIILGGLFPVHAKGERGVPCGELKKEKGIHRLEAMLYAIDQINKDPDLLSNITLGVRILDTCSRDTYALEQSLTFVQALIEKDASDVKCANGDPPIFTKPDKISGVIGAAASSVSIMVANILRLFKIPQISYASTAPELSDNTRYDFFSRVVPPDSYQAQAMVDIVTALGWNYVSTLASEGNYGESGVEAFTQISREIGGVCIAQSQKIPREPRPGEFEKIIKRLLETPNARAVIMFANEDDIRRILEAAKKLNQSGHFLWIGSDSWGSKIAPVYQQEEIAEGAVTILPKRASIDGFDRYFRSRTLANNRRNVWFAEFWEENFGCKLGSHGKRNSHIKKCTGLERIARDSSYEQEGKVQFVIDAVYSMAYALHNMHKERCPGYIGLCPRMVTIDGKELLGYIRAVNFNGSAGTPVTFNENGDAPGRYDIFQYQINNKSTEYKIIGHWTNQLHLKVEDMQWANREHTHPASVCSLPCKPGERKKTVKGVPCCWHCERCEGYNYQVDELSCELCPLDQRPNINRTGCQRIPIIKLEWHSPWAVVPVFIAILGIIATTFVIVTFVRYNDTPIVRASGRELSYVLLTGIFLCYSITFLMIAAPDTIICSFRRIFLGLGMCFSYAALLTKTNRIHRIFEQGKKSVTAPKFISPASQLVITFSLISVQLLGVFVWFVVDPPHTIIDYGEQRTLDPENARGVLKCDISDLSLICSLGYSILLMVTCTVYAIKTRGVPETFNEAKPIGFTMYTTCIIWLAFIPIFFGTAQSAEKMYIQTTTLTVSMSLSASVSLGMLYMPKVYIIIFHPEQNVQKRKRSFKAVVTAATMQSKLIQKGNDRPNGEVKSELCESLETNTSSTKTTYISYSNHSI
row,Structure (SMILES),z-score
1,CC1CCCC(NC(=O)C2CCCN2S(=O)(=O)c2cccc3nsnc23)C1C (stereo not given),-0.00781
2,COc1ccc(OC)c(C(=O)CSc2nnc(Cc3cccs3)n2CCc2ccccc2)c1,-0.216
3,CC1(C)NC(=O)N(CCCCOc2ccc(Br)cc2Cl)C1=O,-0.129
4,COc1ccc(CCNC(=O)CSCc2n[nH]c(=O)[nH]2)cc1OC,0.936
5,O=S(=O)(CCCc1ccccc1)c1ncn[nH]1,0.147
6,CC(C)(C)NS(=O)(=O)c1ccc(CCC(=O)N2CCOCC2)cc1,-0.128
7,COCCN(CCOC)C(=O)c1cc2c(=O)n3ccccc3nc2s1,-0.489
8,CCc1nnc(NC(=O)CSc2nnc(-c3cc4ccccc4cc3O)n2CCOC)s1,-0.0306
9,Cc1ccc([N+](=O)[O-])cc1NC(=O)CN1CCC(C)CC1,-0.169
10,Cc1cc2c3c(c1)C1(C(=O)N3C(C)(C)CC2C)C(C#N)=C(N)Oc2cc(O)ccc21 (stereo not given),0.791
11,Cc1cc(C(=O)CSc2nc(N)cc(=O)[nH]2)c(C)n1CCc1ccc(Cl)cc1,0.0115
12,CCCN1C(=O)/C(=N\OCC(=O)NCC(F)(F)F)c2ccccc21,-0.393
13,O=C(Cn1nc(-c2ccc3c(c2)OCCO3)ccc1=O)Nc1ccc(N2CCOCC2)cc1,0.0486
14,CCOC(=O)/C=C1\SCC(=O)N1CC(=O)NCc1cccc(Cl)c1,1.26
15,COc1ccc(C(C)=O)cc1CSc1nnc(Nc2c(C)cccc2C)s1,-0.239
16,O=C(/C(=C/c1cccc(Cl)c1)c1nc2ccccc2[nH]1)c1ccccc1,-0.206
17,Cc1ccccc1NC(=S)NCc1ccco1,-0.178
18,O=C(c1ccc(S(=O)(=O)c2ccccc2)cc1)N1CCCCCC1,-0.185
19,C=CCN(CCNP(=O)(OCC)OCC)CP(=O)(OCC)OCC,0.044
20,CNC(=O)CN1C(=O)C2C3C=CC(C3)C2C1=O (stereo not given),0.633
21,CC(Sc1cccc[n+]1[O-])C(=O)Nc1cccc(S(=O)(=O)N2CCOCC2)c1 (stereo not given),-0.153
22,COc1ccc(-n2c(=S)[nH]c3cc(C(=O)NCCCN4CCCC4=O)ccc3c2=O)c(OC)c1,0.589
23,O=c1cc(O)c(-c2ccccc2)c(Cl)[nH]1,-0.318
24,O=C(CSc1nnnn1-c1ccccc1)Nc1nc(-c2ccccc2)ns1,0.742
25,Cc1ccc(C(C(=O)NCc2ccccc2)N(Cc2cccs2)C(=O)c2ccc3c(c2)OCCO3)cc1 (stereo not given),-0.331
26,CC(=O)NNC(=O)C(O)(c1ccccc1)c1ccccc1,-0.0895
27,CCc1sc(NC(=O)COC)nc1-c1ccccc1,0.769
28,Cc1ccc(S(=O)(=O)NC2c3cccc4cccc(c34)C2Sc2n[nH]c(N)n2)cc1 (stereo not given),-0.129
29,CCCC1S/C(=N/N=C/c2ccco2)NC1=O (stereo not given),0.687
30,CN(CC(=O)NCc1ccc(F)cc1)S(=O)(=O)c1cccc2nsnc12,0.00752
